# Results from PubChem BioAssay.
# The inconclusive results got no clear call from the source; some entries with a clear call stand among them for comparison. Where the call is inconclusive, the potency comes from a doubtful curve fit. Calls of active or inactive are those of the source. Cut-off not given; nearly all actives show IC50 up to about 30 µM.
# Experiment: SU-DIPG-XXV glioma cell viability, MIPE5.0 library, qHTS (AID 1347068);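 on IC50: cells exposed to compound for 48 hours before viability readout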
SMILES,IC50,outcome
O=C(c1ccc(/C=C/c2n[nH]c3ccccc23)cc1)N1CCNCC1,inconclusive: 7.42 µM [cytotoxic],–
CC(C)C[C@H](NC(=O)c1cc2ccccc2s1)C(=O)N1CCN(C(=O)[C@H](CO)NS(=O)(=O)c2ccc(Cl)cc2Cl)CC1,inconclusive: 23.5 µM [cytotoxic],–
CN(C)CCCNC(=O)c1ccc(-c2cc(O)c3ncccc3c2)cc1,inconclusive: 26.3 µM [cytotoxic],–
CCOC(=O)[C@H]1O[C@@H]1C(=O)N[C@@H](CC(C)C)C(=O)NCCC(C)C,inconclusive: 5.9 µM [cytotoxic],–
CN(C)CCc1c[nH]c2ccc(CS(=O)(=O)N3CCCC3)cc12,–,inactive
CC(=O)O[C@H]1C(=O)[C@@]2(C)C([C@H](OC(=O)c3ccccc3)[C@]3(O)C[C@H](OC(=O)[C@H](O)[C@@H](NC(=O)c4ccccc4)c4ccccc4)C(C)=C1C3(C)C)[C@]1(OC(C)=O)CO[C@@H]1C[C@@H]2O (stereo partly drawn),inconclusive: 0.00372 µM [cytotoxic],–
N=C(N)c1ccc(OCCCCCOc2ccc(C(=N)N)cc2)cc1,inconclusive: 13.2 µM [cytotoxic],–
COc1ccc(C(=O)CC2(O)C(=O)Nc3c(Cl)ccc(Cl)c32)cc1 (stereo not drawn),inconclusive: 0.934 µM,–
O=C1CN2Cc3c(ccc(Cl)c3Cl)N=C2N1,–,inactive
CCOC(=O)C1=C(O)C(=O)N(Cc2ccccc2)C1,inconclusive: 6.61 µM [cytotoxic],–
CCN(CC)CCOc1ccc(Nc2ncc3cc(-c4c(Cl)cccc4Cl)c(=O)n(C)c3n2)cc1,active: 2.95 µM,–
CC(C)C[C@H](NC(=O)CNC(=O)c1cc(Cl)ccc1Cl)B(O)O,active: 0.105 µM,–
COc1cc2nccc(Oc3ccc(NC(=O)NC4CC4)c(Cl)c3)c2cc1C(N)=O,inconclusive: 2.09 µM [cytotoxic],–
OCCN(CCO)c1nc(N2CCCCC2)c2nc(N(CCO)CCO)nc(N3CCCCC3)c2n1,inconclusive: 18.6 µM,–
CC1=C(C)C(=O)C(C(CCCCCC(=O)O)c2ccccc2)=C(C)C1=O (stereo not drawn),–,inactive
Cc1cnc(C(=O)NCCc2ccc(S(=O)(=O)NC(=O)NC3CCCCC3)cc2)cn1,–,inactive
O=C1CCCC(=O)C1C(=O)c1ccc(C(F)(F)F)cc1[N+](=O)[O-],–,inactive
CCC[C@@H](C=O)NC(=O)[C@H](CC(C)C)NC(=O)[C@H](CC(C)C)NC(=O)OCc1ccccc1,active: 0.59 µM,–
CC(=O)OCC(=O)[C@@]1(O)CC[C@H]2[C@@H]3CCC4=CC(=O)CC[C@]4(C)[C@H]3C(=O)C[C@@]21C,–,inactive
Cn1cnc2c(F)c(Nc3ccc(Br)cc3F)c(C(=O)NOCCO)cc21,inconclusive: 0.0186 µM [cytotoxic],–
CC(C)C[C@@H](C=O)NC(=O)[C@H](CC(C)C)NC(=O)[C@H](CC(C)C)NC(=O)OCc1ccccc1,active: 0.263 µM,–
Cc1c(-c2ccc(O)cc2)n(Cc2ccc(OCCN3CCCCCC3)cc2)c2ccc(O)cc12,inconclusive: 37.2 µM [cytotoxic],–
CC(C)(C#N)c1cc(Cn2cncn2)cc(C(C)(C)C#N)c1,–,inactive
NS(=O)(=O)c1cc2c(cc1Cl)NC(C(Cl)Cl)NS2(=O)=O (stereo not drawn),–,inactive
NC(=O)c1ccc2[nH]ccc2c1,–,inconclusive
COc1ccc(OC)c(-c2nnc3ccc(-c4ccc(OC)c(O[C@@H]5CCOC5)c4)nn23)c1,inconclusive: 4.17 µM [cytotoxic],–
Cc1ccc(NC(=O)c2ccc(CN3CCN(C)CC3)cc2)cc1Nc1nccc(-c2cccnc2)n1,inconclusive: 0.00468 µM,–
CCCc1cc(C(N)=S)ccn1,–,inactive
